# Test results: PubChem BioAssay AID1508642 (National Center for Advancing Translational Sciences (NCATS), 2021)
# In all, about 43,000 compounds went through this assay and about 200 (0.47%) were called active. About 12% were inconclusive and are not listed. Calls come from the whole dose curve; as a rule, active = well fitted cell-killing curve with a large enough effect; inconclusive = small, poorly fitted or top-dose-only effect, or effect the other way; inactive = flat fitted curve, though single readings scatter. This is one part of the list.
# Assay: Cell viability qHTS assay in S16 Pmp22-F2sN cells; note: nearly all actives have a fitted effect of over 65% in size
# Conditions: S16 Pmp22-F2sN Schwann cells (luciferase reporters placed in the Pmp22 gene) viability, CellTiter-Glo, 24 h; series mostly up to 57.5 µM; activity change, negative = cytotoxicity: at the top concentration
# Procedure, shortened: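 CellTiter-Glo counter-screen, qHTS, 1536-well. Cells: S16(c9) Pmp22-F2sN, 500-1,000/well in DMEM + 10% FBS. Cpd 23 nL pin transfer, 24 h, 37C/5% CO2. Read: luminescence, CCD imager.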
# % is set by controls: 0 for no effect and ±100 for the full control effect.
row,SMILES,"activity change, negative = cytotoxicity"
1,COc1ccc(S(=O)(=O)c2nnn(-c3ccccc3F)c2C)cc1,inactive: 3.9%
2,Cc1nn(CCCC(=O)NCc2ccc(OC(C)C)cc2)c(=O)c2c1sc1ccccc12,inactive: 9.35%
3,CCc1ccc(Sc2cc(C(=O)O)c3ccccc3n2)cc1,inactive: 0.822%
4,Cc1ccc2[nH]cc(C(c3ccccc3)c3ccc(C)s3)c2c1 (stereo not drawn),inactive: -26.6%
5,CCC(C)NC(=O)CCc1c(C)nc2c(c(C)nn2-c2ccc(C)cc2)c1C (stereo not drawn),inactive: -6.15%
6,CCOc1cccc(CC(=O)NCc2ccc3c(c2)CCN3C(C)=O)c1OCC,inactive: -3.29%
7,COCC(C)NC(=O)c1cc2c(=O)n3cccc(C)c3nc2s1 (stereo not drawn),inactive: -1.92%
8,COc1ccc(NC(=O)CSc2nc3ccccc3n2CC(=O)N2CCCCC2C)cc1 (stereo not drawn),inactive: -8.63%
9,COc1ccc(-c2onc(C)c2C)cc1S(=O)(=O)NCc1ccc(C)o1,inactive: -13.1%
10,COc1ccc(CCCc2nnc(SCC(=O)Nc3cccc(C)c3)o2)cc1,inactive: 1.06%
11,Cc1nn(CCC(=O)NCc2ccc(Cl)cc2)c(=O)c2nn(-c3ccccc3)c(C)c12,inactive: -18.7%
12,CC(CNC(=O)C1CCN(C(=O)N2CCOc3ccc(Cl)cc32)CC1)c1ccccc1 (stereo not drawn),inactive: -4.83%
13,CCN(c1ccc(Cl)cc1)S(=O)(=O)c1nnc(NC(=O)c2ccccc2C)s1,inactive: -5.4%
14,CCOc1ccc(NC(=O)CN2C(=O)CC(C)Sc3ccccc32)cc1 (stereo not drawn),inactive: 8.38%
15,O=C(NCc1ccccc1)C1CCCN(S(=O)(=O)c2cccc3nsnc23)C1 (stereo not drawn),inactive: 1.68%
16,CC(C)(C)OC(=O)N1CCC(c2c(C(=O)Nc3ccc4c(c3)OCCO4)cnn2-c2ccc(Cl)cc2)CC1,inactive: -7.29%
17,O=C1CN(C(=O)COc2ccc(Cl)cc2)C(c2ccccc2)c2cc(Br)ccc2N1 (stereo not drawn),inactive: -23.5%
18,COc1ccc(CCn2c3c(c(=O)[nH]c2=O)C(NC(=O)c2ccccc2F)(C(F)(F)F)C(=O)N3)cc1OC (stereo not drawn),inactive: 6.72%
19,CC(C)Oc1ccccc1C1C=C(C(=O)O)Nc2ncnn21 (stereo not drawn),inactive: 23.1%
20,COc1cc2c(=O)n(Cc3ccccc3Cl)c(=O)n(CC(=O)Nc3ccc(C)c(C)c3)c2cc1OC,inactive: 24.1%
21,Cc1cccc(C(=O)Nc2cc(-c3nc4cccnc4s3)ccc2C)c1,inactive: 0.856%
22,COc1ccc(C)cc1NC(=O)C1CCN(S(=O)(=O)c2ccc3[nH]c(=O)oc3c2)CC1,inactive: -3.2%
23,Cc1ccc2c(c1)C(Cc1ccccc1F)C(=O)N2 (stereo not drawn),inactive: -1.44%
24,COc1ccc(CCNC(=O)C(CC(C)C)N2Cc3ccccc3C2=O)c(OC)c1OC (stereo not drawn),inactive: -2.36%

row,SMILES,"activity change, negative = cytotoxicity"
1,CCn1cc(CCC(=O)NCc2ccc(C)cc2)c2ccccc21,inactive: 4.73%
2,CCCCC(=O)NCc1nc2cccnc2n1Cc1ccc(OC)cc1,inactive: 3.49%
3,COc1cccc(Nc2ccc3cc(S(=O)(=O)N4CCC(C)CC4)ccc3n2)c1,inactive: -25%
4,CCCOc1cccc(C(=O)Nc2cccc(-c3nc4ncccc4o3)c2C)c1,inactive: -6.16%
5,CCC1CN(C(=O)N2CCC(C(=O)NCc3ccc(N(C)C)cc3)CC2)c2ccccc2O1 (stereo not drawn),inactive: -4.66%
6,COc1ccc(-c2oc3ncn4nc(-c5ccccc5O)nc4c3c2-c2ccc(OC)cc2)cc1,inactive: -2.38%
7,Cc1ccccc1-c1nc2scc(CCNS(=O)(=O)c3ccccc3)n2n1,inactive: 2.03%
8,Cc1nn2c(=O)cc(COC(=O)c3cccc(NC(=O)CCc4ccccc4)c3)nc2s1,inactive: 10.3%
9,Cc1cn2c(=O)cc(COC(=O)c3cccc(NC(=O)c4ccc(C(C)(C)C)cc4)c3)nc2s1,inactive: 8.89%
10,CCn1cc2nc(SCC(=O)Nc3ccc(OC)c(OC)c3)n(Cc3ccc(Cl)cc3)c(=O)c2n1,inactive: 14.5%
11,CC(=O)c1cccc(NC(=O)C2CCN(C(=O)c3cnn(-c4ccccc4)c3-n3cccc3)CC2)c1,inactive: -9.13%
12,Cc1c(C(=O)NCc2ccccc2Cl)sc2nc3n(c(=O)c12)CCCCC3,inactive: 2.62%
13,CCOc1ccc(NC(=O)C2CC(=O)NC(=Nc3ccc(Cl)c(Cl)c3)S2)cc1 (stereo not drawn),inactive: 3.68%
14,Cc1c(C(=O)NCc2ccccc2)sc2nc3n(c(=O)c12)CCCCC3,inactive: 1.06%
15,COc1cccc(CNC(=O)c2sc3nc(C)cc(C)c3c2-n2cccc2)c1OC,inactive: -17.2%
16,CCOC(=O)c1ccc(NC(=O)C2CCCN(c3ncnc4onc(-c5ccc(F)cc5)c34)C2)cc1 (stereo not drawn),inactive: 0.491%
17,Cc1ccc(OCC(=O)Nc2cccc(-c3nc4ccccc4s3)c2)cc1,inactive: 0.9%
18,Cc1nn(S(=O)(=O)c2ccc(C(C)(C)C)cc2)c(C)c1S(=O)(=O)N1CCCCCC1,inactive: 0.915%
19,Cc1ccc(-c2n[nH]c3c2C(c2ccc(C(C)(C)C)cc2)NC3=O)cc1 (stereo not drawn),inactive: -0.221%
20,COCCNC(=O)CCn1c(=O)c2cc(OC)c(OC)cc2n(CC(=O)Nc2ccc(Cl)cc2F)c1=O,inactive: -12.4%
21,Cc1ccc(NC(=O)c2oc3ccc(S(=O)(=O)N4CCC5(CC4)OCCO5)cc3c2C)cc1C,inactive: -2.41%
22,Cc1ccc(Cl)cc1N1CCN(C(=O)c2ccc(NC(=O)c3nsc4ccccc34)cc2)CC1,inactive: -3.27%
23,CCOC(=O)COc1ccc(CC)cc1C(=O)c1ccn2nc(-c3ccccc3)cc2n1,inactive: 19.5%
24,COC(=O)c1sccc1S(=O)(=O)N1CCN(c2cc(Cl)ccc2C)CC1,inactive: 8.45%
